Measured values published in article PMC7819943, “Rice protein-binding microarrays: a tool to detect cis-acting elements near promoter regions in rice”.
This is one part of the list.

Molecular target: T1, OsWOX13 (Oryza sativa, UniProt Q5QMM3 1-267)
T1 sequence: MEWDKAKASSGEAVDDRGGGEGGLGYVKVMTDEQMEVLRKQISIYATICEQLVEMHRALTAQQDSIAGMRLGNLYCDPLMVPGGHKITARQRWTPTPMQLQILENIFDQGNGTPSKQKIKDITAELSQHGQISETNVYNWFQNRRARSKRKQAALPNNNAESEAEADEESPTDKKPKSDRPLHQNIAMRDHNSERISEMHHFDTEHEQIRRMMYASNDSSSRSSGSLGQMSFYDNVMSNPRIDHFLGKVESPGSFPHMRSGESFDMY
Assay: protein-binding microarray (RPBM); PBS, 2% BSA, 51.3 ng/ul salmon testes DNA, 50 uM zinc acetate, 200 nM TF, 25 C, 1 h; high values mean tight binding
Conditions: protein: recombinant; tags: N-terminal polyhistidine and DsRed monomer fusion (pET32a); label: CyDye5-dUTP incorporated in the synthesized complementary strand; 3' TTTTT single-stranded linker to array surface; dsDNA, one strand shown
Summary of the method: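 Binding signal is defined as the fluorescence intensity of each feature in arbitrary units, read on an Axon 4000B scanner. Transcription factors with N-terminal polyhistidine and DsRed fusions came from E. coli BL21-CodonPlus and were purified on Ni–NTA. They were incubated at 200 nM for 1 h at 25 °C on a custom Agilent array that had been made double-stranded with Cy5-dUTP, with 50 µM zinc acetate present, and the array was washed.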

Sequence | binding signal
TTTAACACAAATTCTAATGATAAACACAGTTGAGCCTCCCCGGAGTCACCTAGTGCAG | 4640 fluorescence intensity (a.u.)
GTGATTTTGTTAAACTTAGGCTGCTTGTTTCATCAATTGCCGGAGTCACCTAGTGCAG | 3740 fluorescence intensity (a.u.)
GTACAATTATTAATAGAGATACATATCTCAACGACTACACCGGAGTCACCTAGTGCAG | 5340 fluorescence intensity (a.u.)
TATTCTGATTGGAACTTATGAGTCTTGAATTCTTGATTCTCGGAGTCACCTAGTGCAG | 39000 fluorescence intensity (a.u.)
ATAACAAGAGATCAATCACAGAAGACACGAGATTTAACGTCGGAGTCACCTAGTGCAG | 13000 fluorescence intensity (a.u.)
GCTGATAAGCATAAGCATAATTGAAAAGATAAGGCCCTTACGGAGTCACCTAGTGCAG | 3610 fluorescence intensity (a.u.)
CGCCCCTGATTACTCCAGTGATCTGGCACACATTCTATTTCGGAGTCACCTAGTGCAG | 11200 fluorescence intensity (a.u.)
CCTCGTAATTTGATAAATGCCAGCAAATTACTCTCCGTAACGGAGTCACCTAGTGCAG | 38900 fluorescence intensity (a.u.)
TTATGACTGAATAATCTTGTTACTGTACAGGCTTGTGGATCGGAGTCACCTAGTGCAG | 26600 fluorescence intensity (a.u.)
AGAAAGGATTGTGCTGATTGCTGTGCCAGGGAGAGAGGTTCGGAGTCACCTAGTGCAG | 7740 fluorescence intensity (a.u.)
GGACATGATTTTGTTATAGAATCGAATCCATGTTGCATACCGGAGTCACCTAGTGCAG | 8220 fluorescence intensity (a.u.)
GGTAATTTAACAATATTGCCAAGTTTTAGCATGATTTCTTCGGAGTCACCTAGTGCAG | 11400 fluorescence intensity (a.u.)
TGGCTAATAGATAGTTACATACTATTCCCTGCATCTCAAACGGAGTCACCTAGTGCAG | 12100 fluorescence intensity (a.u.)
CACTCCTCATCTCCAATCACACCACACTGGTAAGAATCAACGGAGTCACCTAGTGCAG | 4820 fluorescence intensity (a.u.)
GCAATCACGTTTGCATAATTTTGGACACATGATTTGAAAACGGAGTCACCTAGTGCAG | 10400 fluorescence intensity (a.u.)
CGAAATTTAATGGCGCCATATATTAAAACACGGAGGGAGTCGGAGTCACCTAGTGCAG | 6740 fluorescence intensity (a.u.)
ACCCAATTATTAACCTTTTGCCCTTAACTGCATCTCCCGCCGGAGTCACCTAGTGCAG | 8430 fluorescence intensity (a.u.)
ATATTATTAATTTCCATTCCTATTTGAGTGCTTCCAAATACGGAGTCACCTAGTGCAG | 5610 fluorescence intensity (a.u.)
AAGCTAACAAATTTCCATAATTGCTTCCAGTGAAAAGGTTCGGAGTCACCTAGTGCAG | 12000 fluorescence intensity (a.u.)
ATTATAAATAATCATTAAATGCACGAAACAACCGCGCCAGCGGAGTCACCTAGTGCAG | 4620 fluorescence intensity (a.u.)
AAAAGAATAATTTATTGTCTTGTTCAGTTAATCCCTCCCTCGGAGTCACCTAGTGCAG | 3330 fluorescence intensity (a.u.)

Sequence | binding signal
CCACAATCAATTTGACGTCGCCCCTATTTATGTCCTGCCTCGGAGTCACCTAGTGCAG | 17600 fluorescence intensity (a.u.)
TGGCGTGATTGCAATTTGCAGTTTGTCCCTTTTGACATATCGGAGTCACCTAGTGCAG | 38100 fluorescence intensity (a.u.)
TGGTTATATACAGATGCAAATTGCTAATCAGTAGTACTTACGGAGTCACCTAGTGCAG | 5290 fluorescence intensity (a.u.)
CTATAATTTGTAGATGATGTAGTATAATTATATTTAATCACGGAGTCACCTAGTGCAG | 37300 fluorescence intensity (a.u.)
GGAGTTGATTGATGGACCTAGAATTGGTTGAGATCCTCAGCGGAGTCACCTAGTGCAG | 63700 fluorescence intensity (a.u.)
ACTAAATGAAAGTCTAAGATTTGCCATGTTATTATGATAACGGAGTCACCTAGTGCAG | 4700 fluorescence intensity (a.u.)
ATATGATTCCTACATTAACATAACGAGTTTGTGTTTACAACGGAGTCACCTAGTGCAG | 4200 fluorescence intensity (a.u.)
TGGCAATTGGCATAACAGAATAGATGCCGCTTGCCGTCATCGGAGTCACCTAGTGCAG | 4480 fluorescence intensity (a.u.)
TCACCTGAAAATTGATTATCTACAAAACCACTTCGACGATCGGAGTCACCTAGTGCAG | 12800 fluorescence intensity (a.u.)
GAAAATTGACCATAGGCGTGACGAGTCACGTCGGTACAGGCGGAGTCACCTAGTGCAG | 21100 fluorescence intensity (a.u.)
CGTAATTGCATCTCTATTTTCATCTCTACTTCATTTCTCTCGGAGTCACCTAGTGCAG | 37900 fluorescence intensity (a.u.)
AGATAATTATCATCGTCCACTCTATCCGCCTCCAGCTTGCCGGAGTCACCTAGTGCAG | 39600 fluorescence intensity (a.u.)
AGTGCTAAATTGGTATTTTATGGGACAGAGGGAGTAACTCCGGAGTCACCTAGTGCAG | 16100 fluorescence intensity (a.u.)
TGTTGATAGGTATAGGTATGAATCGAATTCTTATAACTAGCGGAGTCACCTAGTGCAG | 15700 fluorescence intensity (a.u.)
TAATATAATAATAGATAGATAGATTCATCAACTACTGCTTCGGAGTCACCTAGTGCAG | 7100 fluorescence intensity (a.u.)
AAATCAATCTCAACATTATCCCTTTCTTGAGGCTGAGGTTCGGAGTCACCTAGTGCAG | 4060 fluorescence intensity (a.u.)
GTACATAATGCCTAATCGATTGATTTAATATATGCTGGACCGGAGTCACCTAGTGCAG | 9230 fluorescence intensity (a.u.)
CTTAATTAGATGAAATTTAGTACTATTAATTATACTCCATCGGAGTCACCTAGTGCAG | 50100 fluorescence intensity (a.u.)
TACTATGCATAATTTAATAATAAATCGACGATGAGGTCGACGGAGTCACCTAGTGCAG | 3870 fluorescence intensity (a.u.)
CATGTATCTAATTAACCCAATTTCCAACGGCACCCAGCTGCGGAGTCACCTAGTGCAG | 6770 fluorescence intensity (a.u.)
ATTCTACCTATCATCCATTTAAACATGCTACTAGCCATTCCGGAGTCACCTAGTGCAG | 4940 fluorescence intensity (a.u.)
